# From paper PMC6212790
# Some of the results follow. At the low end of the ranking the order means little.
# Molecular target: T1, GST-Rok (full length) (UniProt O34857)
# T1 sequence: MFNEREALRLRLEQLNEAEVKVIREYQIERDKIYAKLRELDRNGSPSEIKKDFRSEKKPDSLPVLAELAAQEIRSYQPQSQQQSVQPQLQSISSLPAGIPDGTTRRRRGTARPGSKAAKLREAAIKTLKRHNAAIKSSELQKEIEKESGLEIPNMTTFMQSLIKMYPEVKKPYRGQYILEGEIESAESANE
# Assay: protein binding microarray;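 also: rank score from −0.5 (least bound) to 0.5 (best bound)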
# Conditions: Rok is a gene silencer of Bacillus subtilis; high values mean tight binding; most listed sequences are background and not binding sites; double strand, one strand shown
row,Sequence,binding signal [E-score]
1,AGTCCTGC,-0.246
2,ACGCCGAT,0.00156
3,GTCGAGCA,-0.118
4,GGCCGAGA,-0.261
5,AGCTATCC,0.0864
6,GATTGGAA,-0.0483
7,CTACTTAA,0.372
8,AGACAATC,0.096
9,CTATTTTC,0.344
10,AAGGTTTC,-0.202
11,AGGTTATC,0.0915
12,CACCATAC,0.0395
13,ACAGTACG,0.142
14,AATCACCA,-0.078
15,AGTACTTG,0.297
16,ACCCACTC,0.0222
17,ATGCCGGA,-0.13
18,GCTTCAGA,-0.348
19,CAGGCGGC,-0.38
20,TAGGATGA,0.123
21,GGGAAGAA,-0.152
22,AGAAAGAT,0.0756
23,ACACAGAT,0.0555
24,GCACACAC,-0.177
25,CAGTGTAG,0.233

row,Sequence,binding signal [E-score]
1,ATTAGTCG,0.0487
2,ACATCATC,-0.0524
3,AACTATAC,0.33
4,CAGGTGAG,-0.216
5,AAATTTCG,0.216
6,CGAAGCCA,-0.165
7,ATTACCTC,0.167
8,CAGATGCC,-0.284
9,AAGAGCGG,-0.237
10,CCACACGC,-0.153
11,AAAGCAGT,-0.147
12,ACCTTATA,0.106
13,CCTTTTGA,-0.0644
14,CGAATACA,0.186
15,GCAGCCGC,-0.259
16,ACGAACGA,-0.116
17,GCGAACGC,-0.213
18,CAAAGGTC,-0.233
19,GCCATTAC,-0.0445
20,AACCATTA,0.125
21,ACCCAATC,0.0244
22,ATTTAGTG,0.166
23,CGATAGGC,0.0165
24,CCTGTGAG,-0.236
25,CCACCACC,-0.235

row,Sequence,binding signal [E-score]
1,TATAACAA,0.115
2,CGCCACCG,-0.165
3,GCATACTA,0.325
4,CCCGCCGA,-0.228
5,TAGTCGCA,-0.00994
6,CGGCCGAG,-0.15
7,CACACCTG,-0.112
8,AGTATGCA,0.109
9,GTTCCAGA,-0.00944
10,ACAGAGGC,-0.125
11,TAACAATA,0.279
12,CGTCGTAA,0.137
13,AGGTCGCG,-0.157
14,AAATCAGC,-0.034
15,ACCCAAGG,-0.366
16,CTCGAGGA,0.0585
17,AGAACTGA,0.126
18,ATAAAGAT,0.189
19,AATTGAGG,0.106
20,ACAATCTA,0.283
21,CTGTAACA,0.0487
22,ATAAGCGC,0.037
23,GGGGCCAA,-0.067
24,CGCCGGCG,-0.381
25,ACAGACCC,-0.29

row,Sequence,binding signal [E-score]
1,ATAAGAGG,0.0493
2,AAATATCT,0.355
3,GGCGACCA,-0.0886
4,CGCGTGGA,-0.0544
5,AGATACAG,0.116
6,ATGTTGTC,0.109
7,ACTGGCCA,-0.0549
8,AATACGGG,0.105
9,GAGGAGTA,-0.0342
10,ACCTCTAT,-0.0213
11,AGACCTAA,0.0612
12,CACGATGA,-0.0769
13,ATTGCATA,0.226
14,CGGCACCG,-0.254
15,ACCTTACC,-0.00261
16,ATCCATAG,0.0675
17,AAGCTGGG,-0.317
18,TTACCAAA,0.236
19,CTTATGAC,0.247
20,ACCTTGGC,-0.12
21,CGTATGCA,0.0909
22,CTCTCTAC,0.0296
23,CTTCTTTA,0.0111
24,GAAGGCTC,-0.367
25,CTTGCATC,-0.0878

row,Sequence,binding signal [E-score]
1,GTGATTCA,-0.0295
2,GGCAACTA,0.171
3,AGCAGCGA,0.141
4,AAATTGAC,0.177
5,AAGTCCTG,-0.135
6,CAACCTGC,-0.143
7,AGTGAGGA,-0.0361
8,CTGGCCAC,-0.145
9,CTCAAGTA,0.201
10,CCGCGCGC,-0.15
11,ACTAAAGG,-0.061
12,ATCGGGGC,-0.281
13,TATGCGGA,0.106
14,TACTTGAA,0.0791
15,GTGTAGCA,0.109
16,CGTCGGCC,-0.362
17,ACTCGATG,0.218
18,ACGCTTAG,-0.129
19,AGCGGCTA,-0.132
20,ATCCCAGA,-0.144
21,CACGAGCG,-0.19
22,GACCCTGC,-0.196
23,TATCGTAA,0.293
24,ACCTATAT,0.301
25,CGGCACCA,-0.19

row,Sequence,binding signal [E-score]
1,AGCCGAGC,-0.277
2,TCATCAGA,0.0627
3,AAAACCAT,0.169
4,ACCTGAAA,-0.124
5,AGATCGTA,0.202
6,CACTCCCC,-0.399
7,CAGTATAG,0.165
8,GAAGAGAA,0.0662
9,GCCTCGCC,-0.429
10,ACGGAGAC,-0.0965
11,CTTAATAA,0.146
12,TAGTGGAA,0.164
13,ATCCGGAT,0.177
14,CGGAACGC,-0.241
15,CAGCAGAA,-0.0962
16,CAAGTGGA,-0.167
17,CAATTAAC,0.0429
18,GTAGCGCA,0.0818
19,ATAAGTAC,0.272
20,AGGAACCT,-0.135
21,AGGGCCAT,-0.0842
22,ATTAATTG,0.204
23,AACGGACT,-0.127
24,GCGGACCC,-0.319
25,CAGTATAA,0.312

row,Sequence,binding signal [E-score]
1,CACTGCCG,-0.341
2,AATAAGGG,-0.0581
3,AATCTGTG,-0.0281
4,AAAGTCTA,-0.144
5,GGACTGCA,-0.209
6,AGGAAAGG,-0.239
7,ATATGTGC,0.188
8,ATCTCCGG,0.00901
9,CGTTGCGC,-0.243
10,GTACAGTA,0.208
11,AGCTCCCC,-0.408
12,TTCAGAAA,-0.132
13,AAGGTAAG,-0.266
14,CATACACC,0.115
15,GATGGGCA,-0.271
16,CTTAACTC,0.071
17,CACGTACA,0.192
18,GGCGACCC,-0.45
19,ATCGGAAA,0.0118
20,ACGCGCTC,-0.117
21,CGGGGACA,-0.319
22,CGTCCGTA,-0.0554
23,CCCCGGCA,-0.27
24,GCCAGCGA,-0.261
25,AGATGGAC,-0.239

row,Sequence,binding signal [E-score]
1,ACGGAATC,0.193
2,ATCGAGAG,-0.0291
3,CACCAGTG,-0.124
4,ACGGCGGG,-0.259
5,ATTTGTAG,0.334
6,AATCACTC,-0.0767
7,ACCGGTCT,-0.0218
8,ACAAGTGT,0.195
9,ACAAGTGG,0.0565
10,CAATTTTA,0.249
11,CATGTGAC,0.0968
12,CAAACAAA,-0.208
13,AAAGTGCA,-0.00348
14,ACGCCAGC,-0.0236
15,AGGCTGCA,-0.203
16,ACATTTGC,0.134
17,GCTTTGGA,-0.148
18,CACCCTAA,-0.155
19,GGCGTCAC,-0.293
20,ATGACGGG,-0.276
21,CCTAAGTA,0.0387
22,AGAATCGA,-0.121
23,CTCATTTC,-0.0699
24,CCGTCATA,-0.106
25,CGAATCCG,-0.07

row,Sequence,binding signal [E-score]
1,CTCAGCTC,-0.332
2,CAACGATG,-0.0562
3,GAGCTTTA,-0.109
4,CAGCAGCG,-0.131
5,ATGAACCC,-0.139
6,CCCCCTAA,-0.309
7,TCTCGTAA,-0.0286
8,GTGGATCA,0.0489
9,ACTCAGAA,-0.025
10,GGCGCGTA,0.0145
11,GGACACTA,-0.0441
12,CATCAAGG,-0.296
13,AAAGCGAC,-0.0517
14,ATCCTGTG,0.0664
15,ATGTTTTA,0.151
16,ATGCGCCG,-0.177
17,CAAGCACC,-0.156
18,CATAATAG,0.243
19,AGTTGACC,-0.12
20,AGGATGAA,-0.219
21,AATGGGTA,0.289
22,GGACTAGA,0.0814
23,AATTGAAC,0.0822
24,CTAGACTC,-0.215
25,CCATGACC,-0.265

row,Sequence,binding signal [E-score]
1,CTTGAAAG,-0.0808
2,GCTTGATA,0.141
3,ATTCTTCC,0.0419
4,AGCCATAA,0.00412
5,AGCTCCCG,-0.283
6,CAAACATA,0.254
7,AGTCGTCG,0.00634
8,AAAATATT,0.358
9,TCGTTTCA,-0.125
10,CATGGTGC,-0.232
11,AATAACGG,0.121
12,TCTTATAA,0.176
13,CGTCTCCC,-0.209
14,AATGCGGT,0.113
15,ATACAATG,0.254
16,CTTAGGTA,0.0868
17,ACCCTACG,-0.152
18,AATCGTAG,0.219
19,GGTGTGAA,-0.095
20,CAGCGCGA,0.137
21,CGAGGCAA,-0.0186
22,CACCTTCC,-0.264
23,CTAACACC,0.0755
24,AAGCTAAG,-0.0658
25,ACCAAAAC,0.0599

row,Sequence,binding signal [E-score]
1,CTGACCCA,-0.303
2,ATCTGAGG,-0.202
3,GCTTCATA,-0.0768
4,ACTTTTTA,0.0443
5,AGGTCTGC,-0.0687
6,GAACTGTC,-0.0462
7,AGATCTTG,0.21
8,ATAACGAA,0.23
9,AGCATTTA,0.0587
10,CAGCAAAA,-0.111
11,GAAATCTA,0.345
12,GACTGAGA,-0.0931
13,GCATAGAA,0.00974
14,GTGTCGGA,-0.00129
15,ACTCTGCC,-0.162
16,ATGTGAAG,0.144
17,AACCTCCA,-0.0934
18,AATGTTAT,0.273
19,CGTGGGCA,-0.264
20,ACTGCTCT,-0.277
21,ACCTGTCT,-0.0271
22,GAGGACGC,-0.313
23,ACCTAGCA,0.0856
24,CCCGGCTC,-0.309
25,CGCAGGTA,0.0849

row,Sequence,binding signal [E-score]
1,AGAGGAAC,-0.179
2,AACGCGCC,-0.252
3,CCAGGACA,-0.0859
4,GTGTGTCA,0.0189
5,CTCGCTGA,-0.29
6,GACTAGGC,-0.216
7,AGTCTTCG,0.0988
8,AGCGGGCC,-0.362
9,GCAACTGC,-0.178
10,ATGTCTCC,-0.0386
11,ACTGGCCG,0.00991
12,ACGAAAGT,0.196
13,AGACGGGA,-0.288
14,AGATGTGA,-0.0336
15,GAGAGAGC,-0.22
16,GACGCATA,0.107
17,ACTTCCCA,-0.0267
18,GCTCACAC,-0.00918
19,TCGTGGCA,-0.249
20,GCCATAGA,0.067
21,CCATACAG,-0.118
22,CCGGCTCC,-0.356
23,GTCGACAC,-0.204
24,CTCCATCC,-0.196
25,CCTCTAAA,-0.049

row,Sequence,binding signal [E-score]
1,AGACCGGG,-0.216
2,CGATCCAC,-0.0874
3,GGGATTAA,0.0693
4,CACGTTCA,-0.0302
5,ACGTGTCC,0.125
6,CGCATGAG,0.00661
7,AGCCGGAT,-0.184
8,ACGCCAAT,-0.0858
9,GAACGAGC,-0.306
10,ATGGTTAA,0.222
11,GCCTTATA,-0.0516
12,GGGGTGAA,-0.178
13,AAAATGTC,0.0473
14,ACACTCTA,-0.12
15,CCCGCGGC,-0.246
16,AATGCCAA,-0.0465
17,AAGTTGCT,0.216
18,CAGCAAAC,0.0159
19,CCAGGTCA,-0.232
20,ACTAGGTC,0.112
21,GCGTCACA,-0.198
22,CCGAAATA,-0.0247
23,AGCAATAC,0.265
24,AGCTGAGC,-0.256
25,ACTAGGAA,0.221

row,Sequence,binding signal [E-score]
1,CTTTCCTA,0.153
2,CTCTTGAC,-0.188
3,CAGAATTC,0.179
4,TGTTAAAA,0.121
5,GTGTGTGA,-0.145
6,ATCAATAG,0.155
7,GAATCCCC,-0.265
8,AAGTTCCT,-0.0902
9,AGAGGCAC,-0.279
10,CCACGAGC,-0.3
11,AGTATATG,0.264
12,ATTAGCGC,0.16
13,CGGTATAA,0.28
14,CCTATTGA,0.0435
15,CTTTCTCA,-0.0968
16,CGGTGGCC,-0.221
17,TATGCTGA,0.103
18,GATCACAC,0.0885
19,AGACTTTA,-0.0247
